Assay results as given in US20180282275A1, “New alkynyl-substituted 3-phenylpyrrolidine-2,4-diones and use thereof as herbicides” (Bayer CropScience Aktiengesellschaft, priority 2015, published 2018).
Values joined by “and” are separate entries in the source; they are usually repeats but may differ in a detail not shown here. Equal values may be shown once. For some of these results: The name of at least one read-out is uncertain. Some entries share one result that the patent states for a list of compounds. Some compounds share one range, which may span the group rather than tell each member.

Tests used:
Type in all cases: in vivo
[1] = test system: Setaria viridis; assay: Pre-emergence herbicidal effect, greenhouse pot test; details: 320 g a.i./ha, visual score after 3 weeks, 100% = plants have died, 0% = like control
From the text: (§1) Seeds of monocotyledonous and dicotyledonous weed plants and crop plants are laid out in wood-fibre pots in sandy loam and covered with soil. The compounds according to the invention formulated in the form of wettable powders (WP) or as emulsion concentrates (EC) are then applied as aqueous suspension or emulsion at a water application rate of 600 to 800 l/ha (converted) with the addition of 0.2% wetting agent to the surface of the covering soil. After the treatment, the pots are placed in a greenhouse and kept under good growth conditions for the trial plants. The damage to the test plants is scored visually after a test period of 3 weeks by comparison with untreated controls (herbicidal activity in percent (%): 100% activity=the plants have died, 0% activity=like control plants). [table]

[2] = test system: Hordeum murinum; assay: as above; details: 320 g a.i./ha, visual score after 3 weeks, 100% = plants have died, 0% = like control
From the text: as §1

[3] = test system: Alopecurus myosuroides; assay: as above; details: 320 g a.i./ha, visual score after 3 weeks, 100% = plants have died, 0% = like control
From the text: as §1

[4] = test system: Lolium rigidium; assay: as above; details: 320 g a.i./ha, visual score after 3 weeks, 100% = plants have died, 0% = like control
From the text: as §1

[5] = test system: Echinochloa crus-galli; assay: as above; details: 320 g a.i./ha, visual score after 3 weeks, 100% = plants have died, 0% = like control
From the text: as §1

[6] = test system: Avena fatua; assay: as above; details: 320 g a.i./ha, visual score after 3 weeks, 100% = plants have died, 0% = like control
From the text: as §1

[7] = test system: Setaria viridis; assay: Post-emergence herbicidal effect, greenhouse pot test; details: 80 g a.i./ha, one-leaf stage, visual score after about 3 weeks, 100% = plants have died
Description: (§2) [table] Seeds of monocotyledonous and dicotyledonous weed and crop plants are laid out in sandy loam in wood-fibre pots, covered with soil and cultivated in a greenhouse under good growth conditions. 2 to 3 weeks after sowing, the test plants are treated at the one-leaf stage. The compounds according to the invention, formulated in the form of wettable powders (WP) or as emulsion concentrates (EC), are then sprayed as aqueous suspension or emulsion at a water application rate of 600 to 800 l/ha (converted) with the addition of 0.2% of wetting agent onto the green parts of the plants. After the test plants have been left to stand in the greenhouse under optimal growth conditions for about 3 weeks, the action of the preparations is assessed visually in comparison to untreated controls (herbicidal action in percent (%): 100% activity=the plants have died, 0% activity=like control plants).

[8] = test system: Alopecurus myosuroides; assay: as above; details: 80 g a.i./ha, one-leaf stage, visual score after about 3 weeks, 100% = plants have died
Description: as §2

[9] = test system: Echinochloa crus-galli; assay: as above; details: 80 g a.i./ha, one-leaf stage, visual score after about 3 weeks, 100% = plants have died
Description: as §2

[10] = test system: Avena fatua; assay: as above; details: 80 g a.i./ha, one-leaf stage, visual score after about 3 weeks, 100% = plants have died
Description: as §2

[11] = test system: Lolium multiflorum; assay: as above; details: 80 g/ha
[12] = test system: Cyperus esculentus; assay: Pre-emergence herbicidal effect, greenhouse pot test; details: 320 g a.i./ha, visual score after 3 weeks, 100% = plants have died, 0% = like control
From the text: as §1

[13] = test system: Lolium multiflorum; assay: as above; details: 320 g a.i./ha, visual score after 3 weeks, 100% = plants have died, 0% = like control
From the text: as §1

| SMILES | Herbicidal effect against [%] SETVI [1] | Herbicidal effect against [%] HORMU [2] | Herbicidal effect against [%] ALOMY [3] | Herbicidal effect against [%] LOLRI [4] | Herbicidal effect against [%] ECHCG [5] | Herbicidal effect against [%] AVEFA [6] | Herbicidal effect against [%] SETVI [7] | Herbicidal effect against [%] ALOMY [8] | Herbicidal effect against [%] ECHCG [9] | Herbicidal effect against [%] AVEFA [10] | effect against Lolium multiflorum [11] | Herbicidal effect against [%] CYPES [12] | Herbicidal effect against [%] LOLMU [13] |
| --- | --- | --- | --- | --- | --- | --- | --- | --- | --- | --- | --- | --- | --- |
| CC#Cc1cc(C)c(C2=C(O)C3(CCC(OCC)CC3)NC2=O)c(C)c1 (stereo not shown) [Example D7] | 80-100% and 100% | 80-100% | 80-100% and 100% | 80-100% | 80-100% and 100% | 80-100% and 70% | 80-100% | 80-100% and 100% | 80-100% and 100% | 80-100% | 80-100% | – | – |
| CC#Cc1cc(C)c(C2=C(OC(=O)C(C)C)C3(CCC(OCC)CC3)NC2=O)c(C)c1 (stereo not shown) [Example P8] | 100% | 80-100% | 100% | 80-100% | 100% | 90% | – | 100% | 100% | 80-100% | 80-100% | 80-100% | – |
| CC#Cc1cc(C)c(C2=C(OC(=O)OCC)C3(CCC(OCC)CC3)NC2=O)c(CC)c1 (stereo not shown) [Example P9] | 80-100% and 100% | 80-100% | 80-100% and 100% | 80-100% | 80-100% and 100% | 80-100% and 100% | 80-100% | 80-100% and 100% | 80-100% and 100% | 80-100% | 80-100% | 80-100% | – |
| CCc1cc(C#CC2CC2)cc(C)c1C1=C(O)C2(CCC(OC)CC2)NC1=O (stereo not shown) [Example D10] | 100% | – | 100% | – | 100% | 100% | 100% | 100% | 100% | – | – | – | 80-100% |
| CC#Cc1cc(C)c(C2=C(OC(=O)OCC)C3(CCC(OCC)CC3)NC2=O)c(C)c1 (single isomer, unassigned) [Example P6] | 80-100% and 100% | 80-100% | 80-100% and 100% | 80-100% | 80-100% and 100% | 80-100% and 90% | 80-100% | 80-100% and 100% | 80-100% and 100% | 80-100% | 80-100% | 80-100% | – |
| CC#Cc1cc(C)c(C2=C(O)C3(CCC(OCC)CC3)NC2=O)c(C)c1 (stereo not shown) [Example D6] | 100% | 80-100% | 100% | 80-100% | 100% | 80-100% and 100% | – | 100% | 100% | 80-100% | 80-100% | 80-100% | – |
| CC#Cc1cc(C)c(C2=C(O)C3(CCC(OCC)CC3)NC2=O)c(CC)c1 (stereo not shown) [Example D4] | 100% | 80-100% | 100% | 80-100% | 100% | 100% | – | 100% | 100% | 80-100% | 80-100% | 80-100% | – |
| CC#Cc1cc(C)c(C2=C(OC(=O)OC)C3(CCC(OCC)CC3)NC2=O)c(C)c1 (stereo not shown) [Example P7] | 100% | 80-100% | 100% | 80-100% | 100% | 100% | – | 100% | 100% | 80-100% | 80-100% | 80-100% | – |
| CCc1cc(C#CC2CC2)cc(C)c1C1=C(OC(=O)C(C)C)C2(CCC(OC)CC2)NC1=O (stereo not shown) [Example P15] | 100% | – | 100% | – | 100% | 90% | 100% | 90% | 100% | – | – | – | 80-100% |
| CC#Cc1cc(C)c(C2=C(OC(=O)OCC)C3(CCC(OCC)CC3)NC2=O)c(C)c1 (single isomer, unassigned) [Example P5] | 100% | 80-100% | 100% | 80-100% | 100% | 100% | – | 100% | 100% | 80-100% | 80-100% | 80-100% | – |
| CC#Cc1cc(C)c(C2=C(O)C3(CCC(OCC)CC3)NC2=O)c(CC)c1 (stereo not shown) [Example S4] | 80-100% and 100% | 80-100% | 80-100% and 100% | 80-100% | 80-100% and 100% | 80-100% and 100% | 80-100% | 80-100% and 100% | 80-100% and 100% | 80-100% | 80-100% | 80-100% | – |
| CC#Cc1cc(C)c(C2=C(OC(=O)OCC)C3(CCC(OCC)CC3)NC2=O)c(CC)c1 (stereo not shown) [Example P10] | 100% | 80-100% | 100% | 80-100% | 100% | 90% | – | 100% | 100% | 80-100% | 80-100% | – | – |
| COC1CCC2(CC1)NC(=O)C(c1c(C)cc(C#CC3CC3)cc1C)=C2O (stereo not drawn) [Example D11, cis-3-[4-(Cyclopropylethynyl)-2,6-dimethylphenyl]-4-hydroxy-8-methoxy-1-azaspiro[4.5]dec-3-en-2-one] | 100% | – | 100% | – | 100% | 100% | 100% | 90% | 100% | – | – | – | 80-100% |
| CC#Cc1cc(C)c(C2=C(O)C3(CCC(OCC)CC3)NC2=O)c(C)c1 (stereo not shown) [Example S3] | 80-100% and 100% | 80-100% | 80-100% and 100% | 80-100% | 80-100% and 100% | 80-100% and 100% | 80-100% | 80-100% and 100% | 80-100% and 100% | 80-100% | 80-100% | 80-100% | – |
